# Measured values from the supplement of paper PMC10037445.
# The full ranking holds about 2,900 compounds; the median of “NF-kB SEAP reporter activity, fold change vs agonist alone” is about 0.99, and the highest 2% start at about 2.6. The list shows a part of the results.
# Tests used:
# RAW-Dual [1] = assay: NF-kB SEAP reporter activity, fold change vs agonist alone; cytotoxicity flag (confluency mask): not cytotoxic; higher = enhanced NF-kB activity
# Summary of the method: (§1)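 Supernatant from RAW-Dual macrophages was read after 20 hours for IRF by QuantiLuc luminescence and for NF-κB by QuantiBlue absorbance at 620 nm. The cells (50,000 cells/well in DMEM, 384-well plates, 37 °C, 5% CO2) had received 50 nL of library stock by pin tool and, 1 h later, a PRR agonist. Reporter activity is expressed relative to agonist-alone wells as fold change, and wells were flagged cytotoxic if IncuCyte confluency was under 70% of agonist controls in both mask sets.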
# RAW-Dual [2] = assay: NF-kB SEAP reporter activity, fold change vs agonist alone; higher = enhanced NF-kB activity
# Summary of the method: as §1
# RAW-Dual [3] = assay: NF-kB SEAP reporter activity, fold change vs agonist alone; cytotoxicity flag (confluency mask): cytotoxic (confluency <70% of control); higher = enhanced NF-kB activity
# Summary of the method: as §1
# [4] = agonist: ODN 1826 (TLR9) 0.5 ug/mL
# [5] = agonist: Pam2CSK4 (TLR2/6) 0.1 ug/mL
# [6] = agonist: Pam3CSK4 (TLR2/1) 0.1 ug/mL
# [7] = library stock concentration (final ~1000-fold dilution): 10 mM, cytotoxicity flag (confluency mask): not cytotoxic, agonist: Imiquimod (TLR7) […]
# [8] = library stock concentration (final ~1000-fold dilution): 10 mM, cytotoxicity flag (confluency mask): not cytotoxic, agonist: MPLA (TLR4) […]
smiles,measurement,setting,value
Cl.N=C(N)NC(=O)c1nc(Cl)c(N)nc1N.O.O (library stock concentration (final ~1000-fold dilution): 10 mM water),NF-kB SEAP reporter activity,RAW-Dual [1]; agonist: LPS (TLR4) 0.1 ug/mL,1.07
same,NF-kB SEAP reporter activity,RAW-Dual [1]; [4],1.09
same,NF-kB SEAP reporter activity,RAW-Dual [1]; [5],0.993
same,NF-kB SEAP reporter activity,RAW-Dual [1]; [6],0.984
Cl.N=C(N)NC(=O)c1nc(Cl)c(N)nc1N.O.O,NF-kB SEAP reporter activity,"RAW-Dual [2]; library stock concentration (final ~1000-fold dilution): 10 mM water, cytotoxicity flag (confluency mask): not cytotoxic, agonist: Imiquimod (TLR7) […]",0.827
same,NF-kB SEAP reporter activity,"RAW-Dual [2]; library stock concentration (final ~1000-fold dilution): 10 mM water, cytotoxicity flag (confluency mask): not cytotoxic, agonist: MPLA (TLR4) […]",1.01
COc1cc2c(cc1OCCCN1CCCC1)N=C(N)C21CCC1,NF-kB SEAP reporter activity,RAW-Dual [2]; [7],0.803
same,NF-kB SEAP reporter activity,RAW-Dual [2]; [8],0.854
COc1cc2c(cc1OCCCN1CCCC1)N=C(N)C21CCC1 (library stock concentration (final ~1000-fold dilution): 10 mM),NF-kB SEAP reporter activity,RAW-Dual [1]; agonist: LPS (TLR4) 0.1 ug/mL,0.857
same,NF-kB SEAP reporter activity,RAW-Dual [1]; [4],0.882
same,NF-kB SEAP reporter activity,RAW-Dual [1]; [5],0.941
same,NF-kB SEAP reporter activity,RAW-Dual [1]; [6],1.05
CNC(=O)c1ccc(-c2cnc3cnc(-c4ccccc4)cn23)cc1 (library stock concentration (final ~1000-fold dilution): 10 mM),NF-kB SEAP reporter activity,RAW-Dual [1]; agonist: LPS (TLR4) 0.1 ug/mL,1.54
same,NF-kB SEAP reporter activity,RAW-Dual [1]; [4],0.763
same,NF-kB SEAP reporter activity,RAW-Dual [1]; [5],1.22
same,NF-kB SEAP reporter activity,RAW-Dual [1]; [6],2.3
CNC(=O)c1ccc(-c2cnc3cnc(-c4ccccc4)cn23)cc1,NF-kB SEAP reporter activity,RAW-Dual [2]; [7],1.1
same,NF-kB SEAP reporter activity,RAW-Dual [2]; [8],1.37
COc1ccc(CCNCc2ccc(OCc3ccc(Cl)nc3)c(OC)c2)cc1OC.Cl,NF-kB SEAP reporter activity,RAW-Dual [2]; [7],0.962
same,NF-kB SEAP reporter activity,RAW-Dual [2]; [8],1.15
COc1ccc(CCNCc2ccc(OCc3ccc(Cl)nc3)c(OC)c2)cc1OC.Cl (library stock concentration (final ~1000-fold dilution): 10 mM),NF-kB SEAP reporter activity,RAW-Dual [1]; agonist: LPS (TLR4) 0.1 ug/mL,0.786
same,NF-kB SEAP reporter activity,RAW-Dual [1]; [4],0.179
same,NF-kB SEAP reporter activity,RAW-Dual [1]; [5],0.84
same,NF-kB SEAP reporter activity,RAW-Dual [1]; [6],0.989
CC12CCC(=O)C=C1C=CC1C2CCC2(C)C1CCC21CCC(=O)O1 (centres undefined),NF-kB SEAP reporter activity,RAW-Dual [2]; [8],1.05
CC12CCC(=O)C=C1C=CC1C2CCC2(C)C1CCC21CCC(=O)O1 (centres undefined) (library stock concentration (final ~1000-fold dilution): 10 mM),NF-kB SEAP reporter activity,RAW-Dual [1]; agonist: LPS (TLR4) 0.1 ug/mL,0.949
same,NF-kB SEAP reporter activity,RAW-Dual [1]; [4],1.05
same,NF-kB SEAP reporter activity,RAW-Dual [1]; [5],0.849
same,NF-kB SEAP reporter activity,RAW-Dual [1]; [6],0.874
O=C(O)CCCCC(CCSCc1ccccc1)SCc1ccccc1 (centres undefined) (library stock concentration (final ~1000-fold dilution): 10 mM),NF-kB SEAP reporter activity,RAW-Dual [1]; agonist: LPS (TLR4) 0.1 ug/mL,1.31
same,NF-kB SEAP reporter activity,RAW-Dual [1]; [4],1.1
same,NF-kB SEAP reporter activity,RAW-Dual [1]; [5],1.12
same,NF-kB SEAP reporter activity,RAW-Dual [1]; [6],1.31
O=C(O)CCCCC(CCSCc1ccccc1)SCc1ccccc1 (centres undefined),NF-kB SEAP reporter activity,RAW-Dual [2]; [7],1.29
same,NF-kB SEAP reporter activity,RAW-Dual [2]; [8],1.13
CC(C)N(CCCNC(=O)Nc1ccc(C(C)(C)C)cc1)CC1OC(n2ccc3c(N)ncnc32)C(O)C1O (centres undefined) (library stock concentration (final ~1000-fold dilution): 10 mM),NF-kB SEAP reporter activity,RAW-Dual [1]; agonist: LPS (TLR4) 0.1 ug/mL,0.953
same,NF-kB SEAP reporter activity,RAW-Dual [1]; [4],1.05
same,NF-kB SEAP reporter activity,RAW-Dual [1]; [5],0.991
same,NF-kB SEAP reporter activity,RAW-Dual [1]; [6],1.14
CC(C)N(CCCNC(=O)Nc1ccc(C(C)(C)C)cc1)CC1OC(n2ccc3c(N)ncnc32)C(O)C1O (centres undefined),NF-kB SEAP reporter activity,RAW-Dual [2]; [7],1.02
same,NF-kB SEAP reporter activity,RAW-Dual [2]; [8],0.984
C=C(Cc1ccccc1Cl)C(=O)OCC,NF-kB SEAP reporter activity,"RAW-Dual [2]; library stock concentration (final ~1000-fold dilution): 10 mM, cytotoxicity flag (confluency mask): cytotoxic (confluency <70% of control), agonist: Imiquimod (TLR7) […]",0.73
same,NF-kB SEAP reporter activity,"RAW-Dual [2]; library stock concentration (final ~1000-fold dilution): 10 mM, cytotoxicity flag (confluency mask): cytotoxic (confluency <70% of control), agonist: MPLA (TLR4) […]",0.891
C=C(Cc1ccccc1Cl)C(=O)OCC (library stock concentration (final ~1000-fold dilution): 10 mM),NF-kB SEAP reporter activity,RAW-Dual [3]; agonist: LPS (TLR4) 0.1 ug/mL,0.636
same,NF-kB SEAP reporter activity,RAW-Dual [3]; [4],0.588
same,NF-kB SEAP reporter activity,RAW-Dual [3]; [5],0.682
same,NF-kB SEAP reporter activity,RAW-Dual [3]; [6],0.806
CC12CCC3C(CCC4C(C)(C(=O)O)CCCC34C)(CC1=O)C2 (centres undefined),NF-kB SEAP reporter activity,RAW-Dual [2]; [7],0.95
same,NF-kB SEAP reporter activity,RAW-Dual [2]; [8],1.14
CC12CCC3C(CCC4C(C)(C(=O)O)CCCC34C)(CC1=O)C2 (centres undefined) (library stock concentration (final ~1000-fold dilution): 10 mM),NF-kB SEAP reporter activity,RAW-Dual [1]; agonist: LPS (TLR4) 0.1 ug/mL,1.41
same,NF-kB SEAP reporter activity,RAW-Dual [1]; [4],1.11
same,NF-kB SEAP reporter activity,RAW-Dual [1]; [5],1.13
same,NF-kB SEAP reporter activity,RAW-Dual [1]; [6],1.02
CC12CC(O)C3CC1(OC1OC(CO)C(O)C(O)C1O)C3(COC(=O)c1ccccc1)C(=O)O2 (centres undefined) (library stock concentration (final ~1000-fold dilution): 10 mM),NF-kB SEAP reporter activity,RAW-Dual [1]; agonist: LPS (TLR4) 0.1 ug/mL,1.33
same,NF-kB SEAP reporter activity,RAW-Dual [1]; [4],0.943
same,NF-kB SEAP reporter activity,RAW-Dual [1]; [5],1.11
same,NF-kB SEAP reporter activity,RAW-Dual [1]; [6],1.16
CC12CC(O)C3CC1(OC1OC(CO)C(O)C(O)C1O)C3(COC(=O)c1ccccc1)C(=O)O2 (centres undefined),NF-kB SEAP reporter activity,RAW-Dual [2]; [7],0.925
same,NF-kB SEAP reporter activity,RAW-Dual [2]; [8],1.04
CC(C)(C)c1nc(-c2cccc(NS(=O)(=O)c3c(F)cccc3F)c2F)c(-c2ccnc(N)n2)s1 (library stock concentration (final ~1000-fold dilution): 10 mM),NF-kB SEAP reporter activity,RAW-Dual [3]; agonist: LPS (TLR4) 0.1 ug/mL,3.02
same,NF-kB SEAP reporter activity,RAW-Dual [3]; [4],3.35
Cc1cc(Nc2cc(N)ncn2)c(=O)n2c1C(=O)NC21CCCCC1 (library stock concentration (final ~1000-fold dilution): 10 mM),NF-kB SEAP reporter activity,RAW-Dual [1]; agonist: LPS (TLR4) 0.1 ug/mL,1.94
same,NF-kB SEAP reporter activity,RAW-Dual [1]; [4],1.36
same,NF-kB SEAP reporter activity,RAW-Dual [1]; [5],1.22
same,NF-kB SEAP reporter activity,RAW-Dual [1]; [6],1.27
Cc1cc(Nc2cc(N)ncn2)c(=O)n2c1C(=O)NC21CCCCC1,NF-kB SEAP reporter activity,RAW-Dual [2]; [7],1.2
same,NF-kB SEAP reporter activity,RAW-Dual [2]; [8],1.33
Cc1c(C(=O)Nc2ccc(N3CCC(N4CCOCC4)CC3)c(C#N)c2)cnn1-c1ccc(Cl)cc1 (library stock concentration (final ~1000-fold dilution): 10 mM),NF-kB SEAP reporter activity,RAW-Dual [1]; agonist: LPS (TLR4) 0.1 ug/mL,0.827
same,NF-kB SEAP reporter activity,RAW-Dual [1]; [4],1.92
same,NF-kB SEAP reporter activity,RAW-Dual [1]; [5],0.819
same,NF-kB SEAP reporter activity,RAW-Dual [1]; [6],1.3
Cc1c(C(=O)Nc2ccc(N3CCC(N4CCOCC4)CC3)c(C#N)c2)cnn1-c1ccc(Cl)cc1,NF-kB SEAP reporter activity,RAW-Dual [2]; [7],1.32
same,NF-kB SEAP reporter activity,RAW-Dual [2]; [8],1.51
OCC1OC(Oc2ccc(O)cc2)C(O)C(O)C1O (centres undefined),NF-kB SEAP reporter activity,RAW-Dual [2]; [7],0.855
same,NF-kB SEAP reporter activity,RAW-Dual [2]; [8],0.972
OCC1OC(Oc2ccc(O)cc2)C(O)C(O)C1O (centres undefined) (library stock concentration (final ~1000-fold dilution): 10 mM),NF-kB SEAP reporter activity,RAW-Dual [1]; agonist: LPS (TLR4) 0.1 ug/mL,1.45
same,NF-kB SEAP reporter activity,RAW-Dual [1]; [4],0.976
same,NF-kB SEAP reporter activity,RAW-Dual [1]; [5],1.07
same,NF-kB SEAP reporter activity,RAW-Dual [1]; [6],1.17
